This is one part of the list.
Molecular target: T1, MBP-FoxP1dN (Mus musculus, UniProt P58462 326-579)
T1 sequence: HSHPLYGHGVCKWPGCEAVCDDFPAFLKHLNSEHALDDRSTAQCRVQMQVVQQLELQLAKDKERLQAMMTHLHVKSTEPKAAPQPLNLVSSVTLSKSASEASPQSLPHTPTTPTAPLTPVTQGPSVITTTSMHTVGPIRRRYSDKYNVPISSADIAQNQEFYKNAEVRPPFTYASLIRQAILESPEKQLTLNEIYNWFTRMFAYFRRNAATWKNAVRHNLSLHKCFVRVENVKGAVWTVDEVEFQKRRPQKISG
Assay: PD-seq (MBP pull-down with sequencing); 20 mM Tris-HCl pH 7.5, 100 mM NaCl, 1.5 mM MgCl2, 0.4 uM protein, 0.1 uM dsDNA library, 30 min, room temperature, amylose pull-down; high values mean tight binding
Details: protein: recombinant; tags: His6-MBP; chain copies: 2; dsDNA, one strand shown
Summary of the method: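 Binding is the reads-per-million enrichment of pull-down relative to input, pooled across replicates. For this, 0.4 µM His6-MBP-tagged mouse FoxP3 or FoxP1 fragment lacking the N-terminus, made in E. coli, was incubated with 0.1 µM Klenow-filled double-stranded degenerate DNA library for 30 min at room temperature in Tris pH 7.5 buffer with NaCl and MgCl2. Complexes bound to amylose resin were washed three times before proteinase K released the DNA for PCR barcoding and Illumina sequencing.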

In order of rising binding signal:
1. GATGATTGTTCTCCCAGCTGATGAATTGGGGAGGTCGAGTAAACAAATTTTCCTAATCTTTCTGTTCAAGCGCCATCTAC  0.725 RPM ratio (pull-down/input)
2. GATGATTGTTCTCCCAGCTGATGAATTTCCGGGGTCGAGTAAACAAATTTTCCTAATCTTTCTGTTCAAGCGCCATCTAC  0.752 RPM ratio (pull-down/input)
3. GATGATTGTTCTCCCAGCTGATGAATTCGGAACCTCGAGTAAACAAATTTTCCTAATCTTTCTGTTCAAGCGCCATCTAC  0.757 RPM ratio (pull-down/input)
4. GATGATTGTTCTCCCAGCTGATGAATTCGAGAGATCGAGTAAACAAATTTTCCTAATCTTTCTGTTCAAGCGCCATCTAC  0.771 RPM ratio (pull-down/input)
5. GATGATTGTTCTCCCAGCTGATGAATTTGCCCGGTCGAGTAAACAAATTTTCCTAATCTTTCTGTTCAAGCGCCATCTAC  0.802 RPM ratio (pull-down/input)
6. GATGATTGTTCTCCCAGCTGATGAATTCGGTGGTTCGAGTAAACAAATTTTCCTAATCTTTCTGTTCAAGCGCCATCTAC  0.814 RPM ratio (pull-down/input)
7. GATGATTGTTCTCCCAGCTGATGAATTCGTCCTCTCGAGTAAACAAATTTTCCTAATCTTTCTGTTCAAGCGCCATCTAC  0.815 RPM ratio (pull-down/input)
8. GATGATTGTTCTCCCAGCTGATGAATTCACTAAGTCGAGTAAACAAATTTTCCTAATCTTTCTGTTCAAGCGCCATCTAC  0.824 RPM ratio (pull-down/input)
9. GATGATTGTTCTCCCAGCTGATGAATTCGCGAAGTCGAGTAAACAAATTTTCCTAATCTTTCTGTTCAAGCGCCATCTAC  0.827 RPM ratio (pull-down/input)
10. GATGATTGTTCTCCCAGCTGATGAATTCTTGACGTCGAGTAAACAAATTTTCCTAATCTTTCTGTTCAAGCGCCATCTAC  0.831 RPM ratio (pull-down/input)
11. GATGATTGTTCTCCCAGCTGATGAATTAGGCGGGTCGAGTAAACAAATTTTCCTAATCTTTCTGTTCAAGCGCCATCTAC  0.832 RPM ratio (pull-down/input)
12. GATGATTGTTCTCCCAGCTGATGAATTCGGGCTTTCGAGTAAACAAATTTTCCTAATCTTTCTGTTCAAGCGCCATCTAC  0.832 RPM ratio (pull-down/input)
13. GATGATTGTTCTCCCAGCTGATGAATTTTACCTGTCGAGTAAACAAATTTTCCTAATCTTTCTGTTCAAGCGCCATCTAC  0.832 RPM ratio (pull-down/input)
14. GATGATTGTTCTCCCAGCTGATGAATTATGGCCGTCGAGTAAACAAATTTTCCTAATCTTTCTGTTCAAGCGCCATCTAC  0.834 RPM ratio (pull-down/input)
15. GATGATTGTTCTCCCAGCTGATGAATTCCCCTTTTCGAGTAAACAAATTTTCCTAATCTTTCTGTTCAAGCGCCATCTAC  0.839 RPM ratio (pull-down/input)
16. GATGATTGTTCTCCCAGCTGATGAATTCAACTGGTCGAGTAAACAAATTTTCCTAATCTTTCTGTTCAAGCGCCATCTAC  0.842 RPM ratio (pull-down/input)
17. GATGATTGTTCTCCCAGCTGATGAATTTCGACTTTCGAGTAAACAAATTTTCCTAATCTTTCTGTTCAAGCGCCATCTAC  0.852 RPM ratio (pull-down/input)
18. GATGATTGTTCTCCCAGCTGATGAATTTTTTCGGTCGAGTAAACAAATTTTCCTAATCTTTCTGTTCAAGCGCCATCTAC  0.853 RPM ratio (pull-down/input)
19. GATGATTGTTCTCCCAGCTGATGAATTGAAAGCTTCGAGTAAACAAATTTTCCTAATCTTTCTGTTCAAGCGCCATCTAC  0.86 RPM ratio (pull-down/input)
20. GATGATTGTTCTCCCAGCTGATGAATTCCTTGAATCGAGTAAACAAATTTTCCTAATCTTTCTGTTCAAGCGCCATCTAC  0.874 RPM ratio (pull-down/input)
21. GATGATTGTTCTCCCAGCTGATGAATTCGCACGTTCGAGTAAACAAATTTTCCTAATCTTTCTGTTCAAGCGCCATCTAC  0.887 RPM ratio (pull-down/input)
22. GATGATTGTTCTCCCAGCTGATGAATTGACTAGGTCGAGTAAACAAATTTTCCTAATCTTTCTGTTCAAGCGCCATCTAC  0.889 RPM ratio (pull-down/input)
23. GATGATTGTTCTCCCAGCTGATGAATTCTGATCATCGAGTAAACAAATTTTCCTAATCTTTCTGTTCAAGCGCCATCTAC  0.901 RPM ratio (pull-down/input)
24. GATGATTGTTCTCCCAGCTGATGAATTACGGCGCTCGAGTAAACAAATTTTCCTAATCTTTCTGTTCAAGCGCCATCTAC  0.907 RPM ratio (pull-down/input)
25. GATGATTGTTCTCCCAGCTGATGAATTCGGCGTATCGAGTAAACAAATTTTCCTAATCTTTCTGTTCAAGCGCCATCTAC  0.924 RPM ratio (pull-down/input)
26. GATGATTGTTCTCCCAGCTGATGAATTTTACATGTCGAGTAAACAAATTTTCCTAATCTTTCTGTTCAAGCGCCATCTAC  0.94 RPM ratio (pull-down/input)
27. GATGATTGTTCTCCCAGCTGATGAATTGGAGACATCGAGTAAACAAATTTTCCTAATCTTTCTGTTCAAGCGCCATCTAC  0.957 RPM ratio (pull-down/input)
28. GATGATTGTTCTCCCAGCTGATGAATTAATCTTTTCGAGTAAACAAATTTTCCTAATCTTTCTGTTCAAGCGCCATCTAC  0.96 RPM ratio (pull-down/input)
29. GATGATTGTTCTCCCAGCTGATGAATTAAATAGGTCGAGTAAACAAATTTTCCTAATCTTTCTGTTCAAGCGCCATCTAC  0.96 RPM ratio (pull-down/input)
30. GATGATTGTTCTCCCAGCTGATGAATTAAAGATTTCGAGTAAACAAATTTTCCTAATCTTTCTGTTCAAGCGCCATCTAC  0.971 RPM ratio (pull-down/input)
31. GATGATTGTTCTCCCAGCTGATGAATTGTCCGTGTCGAGTAAACAAATTTTCCTAATCTTTCTGTTCAAGCGCCATCTAC  0.972 RPM ratio (pull-down/input)
32. GATGATTGTTCTCCCAGCTGATGAATTTTTCCTCTCGAGTAAACAAATTTTCCTAATCTTTCTGTTCAAGCGCCATCTAC  0.972 RPM ratio (pull-down/input)
33. GATGATTGTTCTCCCAGCTGATGAATTATCTTGATCGAGTAAACAAATTTTCCTAATCTTTCTGTTCAAGCGCCATCTAC  0.974 RPM ratio (pull-down/input)
34. GATGATTGTTCTCCCAGCTGATGAATTTCTGAATTCGAGTAAACAAATTTTCCTAATCTTTCTGTTCAAGCGCCATCTAC  0.981 RPM ratio (pull-down/input)
35. GATGATTGTTCTCCCAGCTGATGAATTTTTCGTGTCGAGTAAACAAATTTTCCTAATCTTTCTGTTCAAGCGCCATCTAC  0.984 RPM ratio (pull-down/input)
36. GATGATTGTTCTCCCAGCTGATGAATTAACTAATTCGAGTAAACAAATTTTCCTAATCTTTCTGTTCAAGCGCCATCTAC  0.998 RPM ratio (pull-down/input)
37. GATGATTGTTCTCCCAGCTGATGAATTAGTGGTGTCGAGTAAACAAATTTTCCTAATCTTTCTGTTCAAGCGCCATCTAC  0.998 RPM ratio (pull-down/input)
38. GATGATTGTTCTCCCAGCTGATGAATTGTTCCTGTCGAGTAAACAAATTTTCCTAATCTTTCTGTTCAAGCGCCATCTAC  0.999 RPM ratio (pull-down/input)
39. GATGATTGTTCTCCCAGCTGATGAATTCATTATATCGAGTAAACAAATTTTCCTAATCTTTCTGTTCAAGCGCCATCTAC  0.999 RPM ratio (pull-down/input)
40. GATGATTGTTCTCCCAGCTGATGAATTATCGCACTCGAGTAAACAAATTTTCCTAATCTTTCTGTTCAAGCGCCATCTAC  1.01 RPM ratio (pull-down/input)
41. GATGATTGTTCTCCCAGCTGATGAATTGGATTGTTCGAGTAAACAAATTTTCCTAATCTTTCTGTTCAAGCGCCATCTAC  1.02 RPM ratio (pull-down/input)
42. GATGATTGTTCTCCCAGCTGATGAATTATAAGATTCGAGTAAACAAATTTTCCTAATCTTTCTGTTCAAGCGCCATCTAC  1.02 RPM ratio (pull-down/input)
43. GATGATTGTTCTCCCAGCTGATGAATTGTCTTCATCGAGTAAACAAATTTTCCTAATCTTTCTGTTCAAGCGCCATCTAC  1.02 RPM ratio (pull-down/input)
44. GATGATTGTTCTCCCAGCTGATGAATTTATCCTGTCGAGTAAACAAATTTTCCTAATCTTTCTGTTCAAGCGCCATCTAC  1.03 RPM ratio (pull-down/input)
45. GATGATTGTTCTCCCAGCTGATGAATTGTCCAATTCGAGTAAACAAATTTTCCTAATCTTTCTGTTCAAGCGCCATCTAC  1.05 RPM ratio (pull-down/input)
46. GATGATTGTTCTCCCAGCTGATGAATTGTCGGTATCGAGTAAACAAATTTTCCTAATCTTTCTGTTCAAGCGCCATCTAC  1.05 RPM ratio (pull-down/input)
47. GATGATTGTTCTCCCAGCTGATGAATTACCATCATCGAGTAAACAAATTTTCCTAATCTTTCTGTTCAAGCGCCATCTAC  1.08 RPM ratio (pull-down/input)
48. GATGATTGTTCTCCCAGCTGATGAATTAACAAGCTCGAGTAAACAAATTTTCCTAATCTTTCTGTTCAAGCGCCATCTAC  1.09 RPM ratio (pull-down/input)
49. GATGATTGTTCTCCCAGCTGATGAATTTGTACCGTCGAGTAAACAAATTTTCCTAATCTTTCTGTTCAAGCGCCATCTAC  1.12 RPM ratio (pull-down/input)
50. GATGATTGTTCTCCCAGCTGATGAATTACATGCCTCGAGTAAACAAATTTTCCTAATCTTTCTGTTCAAGCGCCATCTAC  1.14 RPM ratio (pull-down/input)
51. GATGATTGTTCTCCCAGCTGATGAATTTGCATACTCGAGTAAACAAATTTTCCTAATCTTTCTGTTCAAGCGCCATCTAC  1.15 RPM ratio (pull-down/input)
52. GATGATTGTTCTCCCAGCTGATGAATTGATTTTGTCGAGTAAACAAATTTTCCTAATCTTTCTGTTCAAGCGCCATCTAC  1.16 RPM ratio (pull-down/input)
53. GATGATTGTTCTCCCAGCTGATGAATTGCACGCTTCGAGTAAACAAATTTTCCTAATCTTTCTGTTCAAGCGCCATCTAC  1.17 RPM ratio (pull-down/input)
54. GATGATTGTTCTCCCAGCTGATGAATTATGGCATTCGAGTAAACAAATTTTCCTAATCTTTCTGTTCAAGCGCCATCTAC  1.17 RPM ratio (pull-down/input)
55. GATGATTGTTCTCCCAGCTGATGAATTAGCAAAATCGAGTAAACAAATTTTCCTAATCTTTCTGTTCAAGCGCCATCTAC  1.19 RPM ratio (pull-down/input)
56. GATGATTGTTCTCCCAGCTGATGAATTTGCAACCTCGAGTAAACAAATTTTCCTAATCTTTCTGTTCAAGCGCCATCTAC  1.21 RPM ratio (pull-down/input)
57. GATGATTGTTCTCCCAGCTGATGAATTGCATTGCTCGAGTAAACAAATTTTCCTAATCTTTCTGTTCAAGCGCCATCTAC  1.25 RPM ratio (pull-down/input)
58. GATGATTGTTCTCCCAGCTGATGAATTATTAAAATCGAGTAAACAAATTTTCCTAATCTTTCTGTTCAAGCGCCATCTAC  1.32 RPM ratio (pull-down/input)
59. GATGATTGTTCTCCCAGCTGATGAATTTACACACTCGAGTAAACAAATTTTCCTAATCTTTCTGTTCAAGCGCCATCTAC  1.34 RPM ratio (pull-down/input)
60. GATGATTGTTCTCCCAGCTGATGAATTGACAATCTCGAGTAAACAAATTTTCCTAATCTTTCTGTTCAAGCGCCATCTAC  1.38 RPM ratio (pull-down/input)
61. GATGATTGTTCTCCCAGCTGATGAATTTATTTTATCGAGTAAACAAATTTTCCTAATCTTTCTGTTCAAGCGCCATCTAC  1.46 RPM ratio (pull-down/input)
62. GATGATTGTTCTCCCAGCTGATGAATTTATGTCATCGAGTAAACAAATTTTCCTAATCTTTCTGTTCAAGCGCCATCTAC  1.53 RPM ratio (pull-down/input)
63. GATGATTGTTCTCCCAGCTGATGAATTTTATGTATCGAGTAAACAAATTTTCCTAATCTTTCTGTTCAAGCGCCATCTAC  1.71 RPM ratio (pull-down/input)
